# Test results from PubChem BioAssay AID602310 (National Center for Advancing Translational Sciences (NCATS), 2012).
# About 310 (0.076%) of roughly 410,000 compounds were called active. This list was built around the results that the source calls inconclusive (neither active nor inactive); the mix of calls is not that of the screen. Calls follow the shape of the dose curve; as a rule, active = well fitted curve in the direction sought with a large enough effect; inconclusive = small, poorly fitted or top-dose-only effect; inactive = flat fitted curve, though single readings scatter. A potency beside an inconclusive call is a rough fit, not a confirmed value.
# Target: DNA dC->dU-editing enzyme APOBEC-3G (Homo sapiens) (UniProt Q9HC16)
# Sequence of UniProt Q9HC16 (Q9HC16 whole entry, looked up): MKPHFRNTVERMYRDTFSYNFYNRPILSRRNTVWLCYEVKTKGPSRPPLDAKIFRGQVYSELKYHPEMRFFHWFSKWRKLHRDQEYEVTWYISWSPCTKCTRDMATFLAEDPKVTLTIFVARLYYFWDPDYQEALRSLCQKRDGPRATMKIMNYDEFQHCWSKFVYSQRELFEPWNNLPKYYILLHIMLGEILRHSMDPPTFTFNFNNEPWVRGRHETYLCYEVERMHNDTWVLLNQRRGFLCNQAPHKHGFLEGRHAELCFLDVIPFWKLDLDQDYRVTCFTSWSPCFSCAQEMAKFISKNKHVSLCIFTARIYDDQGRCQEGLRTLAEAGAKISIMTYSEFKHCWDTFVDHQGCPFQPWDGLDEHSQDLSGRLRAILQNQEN
# Assay: qHTS for Inhibitors of Vif-A3G Interactions: qHTS; also: nearly all actives have a fitted effect of over 60% in size
# Settings: HeLa A3G-eYFP + Vif (tagged APOBEC3G with the HIV-1 protein that degrades it), YFP fluorescence, overnight; series mostly up to 46.1 µM
# Summary of the method: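 Read-out is eYFP fluorescence (Ex 488/Em 500-530) from Vif-expressing HeLa A3G-eYFP cells; more signal means A3G escaped Vif-mediated degradation. Cells plated overnight, compound pinned in, incubated overnight at 37 deg C.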
# Potency is read from the fitted curve at half-maximal effect; tags tell the direction and shape of the fitted curve.
row,SMILES,Potency
1,COCCCNC(=O)c1ccc(Cn2c(=O)c3ccccc3n(Cc3ccccc3C)c2=O)cc1,"inconclusive: 20 µM [inhibitor, single point]"
2,Cc1ccc(C(NC(=O)C2CCN(CCOc3ccc(Cl)cc3)CC2)c2ccccn2)cc1 (stereo not given),inactive
3,COc1ccc(C(=O)Nc2nnc(-c3cccs3)s2)cc1,"inconclusive: 2.24 µM [inhibitor, full curve]"
4,Cc1ccc(S(=O)(=O)N2c3cc(C)ccc3OCC2C(C)(C)C)cc1 (stereo not given),"inconclusive: 12.6 µM [inhibitor, single point]"
5,Cc1ccc(/C=N/NC(=O)c2c(C)nc3ccc(Br)cn23)cc1,"inconclusive: 0.891 µM [inhibitor, full curve]"
6,O=C(/C=C/c1ccccc1O)c1ccco1,"inconclusive: 17.8 µM [inhibitor, single point]"
7,CCOC(=O)N1CCN(Cc2nc3ccc([N+](=O)[O-])cc3c(=O)n2-c2ccccc2F)CC1,"inconclusive: 15.8 µM [inhibitor, single point]"
8,O=C(Nc1nccs1)c1cccc(N2C(=O)c3cccc4c([N+](=O)[O-])ccc(c34)C2=O)c1,"inconclusive: 7.08 µM [inhibitor, full curve, poor fit]"
9,CCOC(=O)N1CCN(S(=O)(=O)c2ccc(C(=O)Nc3ccc(F)cc3F)cc2)CC1,"inconclusive: 1.78 µM [inhibitor, full curve, poor fit]"
10,CC(=O)Nc1ccc(NS(=O)(=O)c2cc(Br)cc3c2N(C(=O)C2CC2)CC3)cc1,"inconclusive: 14.1 µM [inhibitor, single point]"
11,Cc1ccc(C(=O)CSc2ccccn2)cc1,inactive
12,Cc1ccc(NC(=O)/C(C#N)=C/c2cc(C)n(-c3ccc(Br)cc3)c2C)cc1C,"inconclusive: 25.1 µM [inhibitor, single point]"
13,COc1ccc(CCNS(=O)(=O)c2cccc([N+](=O)[O-])c2)cc1OC,inactive
14,CC1=C(c2ccc(C)cc2)S(=O)(=O)N(Cc2ccc(C(=O)Nc3ccccc3C)cc2)C1=O,"inconclusive: 10 µM [inhibitor, partial curve, poor fit]"
15,NNC(=O)c1cc2ccccc2[nH]1,"inconclusive: 1.58 µM [inhibitor, partial curve, poor fit]"
16,O=C(NCCc1ccc(F)cc1)c1cccc2c1C(=O)c1ccc(N3CCC(Cc4ccccc4)CC3)cc1S2(=O)=O,"inconclusive: 20 µM [inhibitor, partial curve, poor fit]"
17,CCOC(=O)N1CCN(C(=O)CSc2ccccc2)CC1,inactive
18,CCc1ccc2nc(NC(=O)c3cc(C)on3)sc2c1,"inconclusive: 1.78 µM [inhibitor, full curve, poor fit]"
19,COc1cc2c(cc1OC)C(C)N(C(=O)Nc1cc(C)cc(C)c1)CC2 (stereo not given),"inconclusive: 2 µM [inhibitor, full curve, poor fit]"
20,COc1ccc(-c2nc(C(N)=O)c3[nH]c(=O)n(-c4cccc(Cl)c4)c3n2)cc1OC,"inconclusive: 11.2 µM [inhibitor, partial curve]"
21,COC(=O)CC1COc2ccccc2N1S(=O)(=O)c1ccc(OC)cc1 (stereo not given),"inconclusive: 6.31 µM [inhibitor, partial curve, poor fit]"
22,CCOC(=O)Nc1nc(-c2ccccc2)c(C(=O)c2ccc(Cl)cc2)s1,"inconclusive: 0.316 µM [inhibitor, full curve, poor fit]"

row,SMILES,Potency
1,CCOCCCNC(=O)c1ccc2c(c1)ncn2-c1cccc(C)c1,"inconclusive: 35.5 µM [inhibitor, single point]"
2,Cc1cc(C2CCCCC2)n(O)c(=O)c1,"inconclusive: 35.5 µM [inhibitor, single point]"
3,O=C(Nc1ccc(N2CCN(C(=O)c3ccccc3)CC2)cc1)c1ccc([N+](=O)[O-])o1,"inconclusive: 10 µM [inhibitor, partial curve]"
4,NC(CCc1ccccc1)c1csc(Nc2ccccn2)n1 (stereo not given),"inconclusive: 35.5 µM [inhibitor, single point]"
5,O=C(NNC(=O)c1cc(-c2ccc(Cl)cc2Cl)nc2ccccc12)Nc1ccccc1,"inconclusive: 17.8 µM [inhibitor, single point]"
6,CCc1c(C)sc(NC(=O)c2cc(-c3cccc(Cl)c3)on2)c1C#N,inactive
7,Cc1ccc(C)c(NC(=O)Cn2cc(C(=O)c3ccco3)c3ccccc32)c1,"inconclusive: 22.4 µM [inhibitor, single point]"
8,C=CCNc1nnc(SC2CC(=O)N(c3ccc(OCCC)cc3)C2=O)s1 (stereo not given),inactive
9,O=C(Nc1cc(S(=O)(=O)N2CCOCC2)ccc1Cl)c1cc([N+](=O)[O-])ccc1Cl,"inconclusive: 31.6 µM [inhibitor, single point]"
10,COc1ccc(C2=NOC(C(=O)NCc3ccc(F)cc3)C2)cc1 (stereo not given),"inconclusive: 7.08 µM [inhibitor, full curve]"
11,COc1ccc(N(C(=O)C(C)C)S(=O)(=O)c2cccs2)cc1,"inconclusive: 12.6 µM [inhibitor, partial curve]"
12,COc1ccc(/C=C2\C(=O)NC(=S)N2C(=O)c2ccc(F)cc2)cc1,"inconclusive: 2.82 µM [inhibitor, partial curve, poor fit]"
13,COc1ccc(Cc2nn3c(-c4ccccc4Br)nnc3s2)cc1,inactive
14,COc1ccccc1NCC(O)COc1ccc(C(C)(C)C)cc1 (stereo not given),inactive
15,CCOc1ccccc1N(C)C(=O)Cn1ncc2c([nH]c3ccccc32)c1=O,"inconclusive: 31.6 µM [inhibitor, single point]"
16,N=c1c(S(=O)(=O)c2ccc(Cl)cc2)cc2c(=O)n3ccccc3nc2n1Cc1cccnc1,"inconclusive: 5.62 µM [inhibitor, single point]"
17,N#CC(C#N)=C1C=CC=CN1/C(=C\c1ccccc1Cl)C(=O)c1ccccc1,"inconclusive: 10 µM [inhibitor, partial curve]"
18,O=C(CCN1C(=O)C2C3C=CC(C4CC34)C2C1=O)Oc1cccc2cccnc12 (stereo not given),"inconclusive: 35.5 µM [inhibitor, single point]"
19,CCN1/C(=C/c2cccc[n+]2C)Sc2ccc(OC)cc21,"inconclusive: 22.4 µM [inhibitor, single point]"
20,CCCOCCOC(=O)c1[nH]c2c(c1C)C(=O)CC(c1cc(OC)ccc1OC)C2 (stereo not given),"inconclusive: 0.891 µM [inhibitor, full curve, poor fit]"
21,CCOc1ccc2c(c1)OC(c1ccc(OC)cc1)(C(F)(F)F)NC2=O (stereo not given),"inconclusive: 2.51 µM [inhibitor, partial curve, poor fit]"
22,COc1ccc(NC(=O)c2sc3nc(-c4ccc(OC)cc4)cc(C(F)(F)F)c3c2N)cc1,"inconclusive: 17.8 µM [inhibitor, single point]"

row,SMILES,Potency
1,CC(C)C(OC(=O)C1=Cc2ccccc2OC1)C(=O)NCC1CCCO1 (stereo not given),inactive
2,CC(=O)Nc1ccc(S(=O)(=O)c2ccnc3cc(Cl)ccc23)cc1,"inconclusive: 15.8 µM [inhibitor, single point]"
3,COc1ccccc1OCCSc1nc2ccccc2n1CC(=O)N1CCOCC1,inactive
4,Cc1[nH]nc2c1C(c1ccc(-c3ccc(Cl)cc3)o1)C(C#N)=C(N)O2 (stereo not given),inactive
5,CCN1CCc2c(sc(NC(=O)c3ccc(S(=O)(=O)N(C)c4ccccc4)cc3)c2C(=O)NC)C1,"inconclusive: 12.6 µM [inhibitor, partial curve, poor fit]"
6,COc1ccc(CNc2ncc(-c3ccccc3)n2C)c2ccccc12,"inconclusive: 35.5 µM [inhibitor, single point]"
7,CC(=O)c1ccc(-c2cnc3c(NC=O)cc(-c4ccccc4Oc4ccccc4)cn23)cc1,"inconclusive: 5.01 µM [inhibitor, partial curve, poor fit]"
8,O=C1N/C(=N\N=C\c2cccs2)SC1Cc1cccc(Cl)c1Cl (stereo not given),"inconclusive: 1.41 µM [inhibitor, full curve, poor fit]"
9,CCOc1ccccc1N(CC)C(=O)Cn1ncc2c([nH]c3ccccc32)c1=O,inactive
10,COC(=O)N1c2ccccc2CCc2ccccc21,"inconclusive: 15.8 µM [inhibitor, single point]"
11,COc1ccc(/C=C/C(=O)c2ccccc2)cc1COc1ccc(F)cc1,inactive
12,Cc1c(CCO)c(=O)oc2n[nH]c(-c3ccccc3)c12,inactive
13,Cc1ccc(NC(=O)c2cccnc2)c([N+](=O)[O-])c1,"inconclusive: 10 µM [inhibitor, partial curve, poor fit]"
14,CC(=O)c1sc2nc(-c3cccs3)ccc2c1N,inactive
15,CC(C)CNC(=O)c1coc(=O)c(Br)c1,"inconclusive: 12.6 µM [inhibitor, partial curve, poor fit]"
16,COc1cc(C(C(=O)NC2CCCC2)N(Cc2ccco2)C(=O)c2snc(C(N)=O)c2N)cc(OC)c1OC (stereo not given),inactive
17,COc1ccc(C(=O)Nc2ccc(C(=O)Nc3nccs3)cc2)cc1[N+](=O)[O-],inactive
18,CC1=Nc2cc(C(=O)NCc3ccccc3Cl)ccc2Sc2c(C)ccc(C)c21,"inconclusive: 0.562 µM [inhibitor, full curve, poor fit]"
19,CCCCCCc1c(C)[nH]c2nc3ccccc3n2c1=O,inactive
20,COc1ccccc1N1CCN(c2cc(=O)n(Cc3ccc(F)cc3)c(=O)[nH]2)CC1,"inconclusive: 3.16 µM [inhibitor, full curve]"
21,Cn1cnc([N+](=O)[O-])c1Oc1cccc2ccccc12,"inconclusive: 10 µM [inhibitor, partial curve]"
